Measured values from PubChem BioAssay AID588453 (National Center for Advancing Translational Sciences (NCATS), 2011).
The campaign covered roughly 390,000 compounds. About 4,000 (1%) were called active. The inconclusive results got no clear call from the source; some entries with a clear call stand among them for comparison. Calls follow the shape of the dose curve; as a rule, active = well fitted inhibition curve with a large enough effect; inconclusive = small, poorly fitted or top-dose-only effect; inactive = no such curve, though single readings can be large or run the other way. Potencies of inconclusive entries are doubtful fits and often do not repeat.

These molecules were tested against Thioredoxin reductase 1, cytoplasmic (Rattus norvegicus) (UniProt O89049) (assay: qHTS Assay for Inhibitors of Mammalian Selenoprotein Thioredoxin Reductase 1 (TrxR1): qHTS). Details: recombinant rTrxR1, NADPH fluorescence consumption, selenite substrate; series mostly up to 114 µM.
Method in brief: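 Rat TrxR1 (90 nM in the dispensed reagent) was pre-reduced with 400 uM NADPH for 5 min at room temperature, then incubated with compound for 15 min. After 400 uM selenite was added, NADPH fluorescence (Ex 340/Em 450 nm) was followed for 8 min.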
Also: nearly all actives have a fitted effect of over 65% in size.
Potency is read from the fitted curve at half-maximal effect; tags tell the direction and shape of the fitted curve.

UniProt O89049, sequence (O89049 whole entry, looked up): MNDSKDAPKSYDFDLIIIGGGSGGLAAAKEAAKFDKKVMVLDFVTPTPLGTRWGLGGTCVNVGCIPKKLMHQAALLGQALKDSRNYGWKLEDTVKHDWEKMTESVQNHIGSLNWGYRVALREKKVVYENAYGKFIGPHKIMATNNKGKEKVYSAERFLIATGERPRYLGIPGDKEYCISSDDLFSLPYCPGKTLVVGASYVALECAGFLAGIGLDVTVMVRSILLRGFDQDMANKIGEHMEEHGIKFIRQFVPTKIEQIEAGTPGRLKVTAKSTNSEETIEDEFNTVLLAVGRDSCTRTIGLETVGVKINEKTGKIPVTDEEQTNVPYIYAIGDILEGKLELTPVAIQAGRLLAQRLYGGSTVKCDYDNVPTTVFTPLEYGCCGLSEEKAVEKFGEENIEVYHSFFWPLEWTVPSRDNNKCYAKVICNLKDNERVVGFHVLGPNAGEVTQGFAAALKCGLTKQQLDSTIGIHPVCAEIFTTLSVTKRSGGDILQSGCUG

SMILES | Potency
O=C(CC(=O)c1ccccc1)Nc1ccccc1C(F)(F)F | inactive
O=C(CN1CCCCCC1)Nc1ccccc1F | inactive
Cc1ccc(N2C(=S)NC3c4cc(Cl)ccc4OC2(C)C3C(=O)N(C)C)cc1 (configuration not stated) | inactive
COc1ccc2oc(C(=O)N3CCN(C(=O)c4ccco4)CC3)c(C)c2c1 | inconclusive: 44.7 µM [inhibitor, partial curve, poor fit]
CCCCC(CC)CN=C(N)NC(N)=NCCCCCCN=C(N)NC(N)=NCC(CC)CCCC (configuration not stated) | inconclusive: 25.1 µM [inhibitor, full curve]
c1ccc(C2CC(c3cccs3)=NN2c2ccccc2)cc1 (configuration not stated) | inconclusive: 70.8 µM [inhibitor, single point]
Cc1ccc(Cl)cc1NC(=O)CCS(=O)(=O)c1ccc2c(c1)n(C)c(=O)c(=O)n2C | inconclusive: 17.8 µM [inhibitor, full curve]
Cc1ccc(-n2c3nc(=O)[nH]c(=O)c-3cc3c(C)nn(-c4ccccc4)c32)c(C)c1 | inconclusive: 12.6 µM [inhibitor, partial curve, poor fit]
O=C(COC(=O)c1ncc(Cl)c(Cl)c1Cl)Nc1ccc(Cl)cn1 | inconclusive: 70.8 µM [inhibitor, single point]
O=C(Nc1ccc(Cl)cc1)c1cc2c(-c3ccccc3)nn(-c3ccccc3)c2s1 | inactive
S=c1[nH]ncn1/N=C/c1ccccc1 | inconclusive: 10 µM [inhibitor, partial curve, poor fit]
CC1=C(CC/C(C)=N/NC(N)=S)C(C)(C)CCC1 | inactive
COc1cccc(-c2nc3ccccc3s2)c1O | inactive
Cn1c(SCC(=O)NC2CC2)nnc1-c1ccco1 | inconclusive: 89.1 µM [inhibitor, single point]
O=C1CN(C(=O)c2ccc(Br)o2)C(c2ccc(F)cc2)c2cc(Cl)ccc2N1 (configuration not stated) | inconclusive: 3.16 µM [inhibitor, partial curve, poor fit]
Cc1ccccc1NS(=O)(=O)c1cc(C(=O)NCc2ccco2)ccc1C | inactive
O=C(N/N=C/c1ccc(N2CCOCC2)cc1)c1ccncc1 | inconclusive: 50.1 µM [inhibitor, partial curve]
O=C1/C(=C/c2ccco2)CCc2ccccc21 | inactive
COc1ccc(NC(=O)c2ccc(NC(=O)c3ccco3)cc2)c(OC)c1 | inactive
COc1cccc(-n2c(CCn3nc(C)c([N+](=O)[O-])c3C)n[nH]c2=S)c1 | inconclusive: 50.1 µM [inhibitor, partial curve]
Cc1cc(C)cc(-n2ccn(Cc3ccc(F)cc3)c(=O)c2=O)c1 | inactive
COC(=O)CCC(=O)OC1(C)C(=O)C=C2C=C(C3CC3)N(c3cccc(C#N)c3)C=C2C1=O (configuration not stated) | inconclusive: 0.141 µM [inhibitor, full curve, poor fit]
CCC1(c2ccccc2)NC(=O)N(CC(=O)N2CCN(S(=O)(=O)c3ccccc3)CC2)C1=O (configuration not stated) | inconclusive: 89.1 µM [inhibitor, single point]
CCCS(=O)(=O)N1CCN(c2cc3c(cc2[N+](=O)[O-])n(C)c(=O)n3C)CC1 | inactive

SMILES | Potency
Cc1ccc(Cl)cc1N1CCN(C(=O)c2ccc(CS(=O)Cc3ccc(Cl)cc3)o2)CC1 (configuration not stated) | inconclusive: 70.8 µM [inhibitor, partial curve]
NC(=S)N=Nc1ccc(NN=C(N)N)cc1 | active: 20 µM
COCCN(C(=O)CCc1nnc(Cc2c[nH]c3ccccc23)o1)C(C)C | inconclusive: 56.2 µM [inhibitor, single point]
COc1ccc(-c2oc3cccnc3c2C#CCO)cc1 | inconclusive: 15.8 µM [inhibitor, full curve, poor fit]
Cc1cc(C)c2oc(C(=O)Nc3ccc(S(=O)(=O)Nc4nccc(C)n4)cc3)cc(=O)c2c1 | inconclusive: 39.8 µM [inhibitor, partial curve, poor fit]
CCCc1[nH]nc2c1C(c1cc(OC)ccc1F)C(C#N)=C(N)O2 (configuration not stated) | inconclusive: 39.8 µM [inhibitor, partial curve, poor fit]
CCOc1ccc(C(=O)NC(=S)Nc2cccc(S(=O)(=O)NC3=NCCC3)c2)cc1 | inconclusive: 20 µM [inhibitor, single point]
CC(C)NC(=O)c1ccccc1NC(=O)/C=C/c1cccc([N+](=O)[O-])c1 | inactive
CNCCN(C)c1nc(-c2cccs2)nc2ccccc12 | inactive
O=C1C=CC(=O)N1c1cccc(-c2ccccc2)c1 | active: 2.51 µM
C=CCn1c(-c2cccn(Cc3cccc(Cl)c3)c2=O)n[nH]c1=S | inconclusive: 15.8 µM [inhibitor, single point]
O=c1[nH]c2ccccc2c2oc(CCl)nc12 | inconclusive: 17.8 µM [inhibitor, full curve]
CC(C)(C)OC(=O)N/N=C\c1ccc[nH]1 | inactive
Cc1ccc(SCC(=O)Nc2cccc(C)c2)cc1 | inactive
O=C(Nc1ccncc1NC(=O)c1cccc([N+](=O)[O-])c1)c1cccc([N+](=O)[O-])c1 | inconclusive: 79.4 µM [inhibitor, partial curve, poor fit]
Cc1nc2ccccc2nc1CN1CCN(Cc2ccc(F)c(F)c2)C(CCO)C1 (configuration not stated) | inconclusive: 79.4 µM [inhibitor, partial curve]
CN(CCOC(=O)/C=C/c1ccco1)Cc1ccccc1 | active: 44.7 µM
CCOc1cc(/C=N\NC(N)=O)cc(Br)c1OC(C)C | inconclusive: 79.4 µM [inhibitor, partial curve, poor fit]
O=C(c1ccc(CS(=O)c2ccccc2Cl)o1)N1CCN(c2ccccn2)CC1 (configuration not stated) | inactive
COc1ccc(C2CC(=O)N(CC(=O)Nc3ccc(C(C)=O)cc3)c3ccccc3S2)cc1OC (configuration not stated) | inactive
CCOC(=O)c1c(C)oc2nc(C)nc(N3CCN(c4cccc(C(F)(F)F)c4)CC3)c12 | inactive
O=C(/C=C/c1ccco1)N1CCN(S(=O)(=O)c2ccccc2)CC1 | inconclusive: 79.4 µM [inhibitor, single point]
CN(C)S(=O)(=O)c1cccc(NC(=S)Nc2cc(Cl)cc(Cl)c2)c1 | active: 20 µM
